# Experimental data from PubChem BioAssay AID1956 (SRMLSC, 2009).
# The list shows a part of the results. These are further read-outs of the screen, such as a control signal, another cell line or another target. No call is given for them.
# Test: enhancers of HSV replication in host cells, fold increase, host cell viability (AID 1956); further: tested in PC3 cells
# Conditions: HSV replication augmentation in cells; fold increase: measured here: primary screen fold increase 10 uM, at 10 µM, stronger effect = higher value; viability: measured here: host cell viability series, at 25 µM, stronger effect = lower value
SMILES,fold increase,viability
CCCN1CC=C2C(C#N)=C(N)C(C#N)(C#N)C(c3cccc(OC)c3OC)C2C1 (stereo not drawn),1.32,100%
O=C(CCc1ccccc1)NC(NC(=S)Nc1ccc(Cl)cc1)C(Cl)(Cl)Cl (stereo not drawn),1.04,–
COC(=O)Nc1sc2c(c1C(=O)NC1CC1)CCCCCC2,1.32,101%
Cc1ccc(N=Cc2c(O)n(-c3nccs3)c(=O)c3ccccc23)cc1,1.37,–
CCOC(=O)C1=C(CSc2nc(C)ccc2C#N)OC(N)=C(C#N)C1c1cccc(OC)c1OC (stereo not drawn),1.75,94.8%
COc1ccc(CNC(=O)c2cccnc2Sc2ccc(Cl)cc2)cc1,1.37,96.3%
O=C(Nc1ccc(F)cc1)C(Cc1ccccc1)n1cccc1 (stereo not drawn),1.32,–
CCCCCCNC(=O)C(C#N)c1nc2ccccc2nc1N1CCOCC1 (stereo not drawn),1.79,91.3%
CN1/C(=C\C=Nc2cc(S(=O)(=O)N3CCOCC3)ccc2N2CCOCC2)C(C)(C)c2ccccc21,1.5,97.8%
CCn1c(=O)c(C(=O)CN2CCc3ccccc32)c(N)n(Cc2ccccc2)c1=O,1.88,90.4%
CC(=Nc1ccc(Br)cc1)c1sc2ccccc2c1O,3.01,101%
CCN(CC)c1ccc2c(Cl)c(Br)c(=O)oc2c1,2.87,43.9%
CC1=C(C#N)C(=O)N(C2CCS(=O)(=O)C2)C(=O)/C1=C\c1ccc(C)o1 (stereo not drawn),2.88,93.3%
CCC(CO)[n+]1c(C)cc(/C=C2\Sc3ccccc3N2Cc2ccccc2)cc1C (stereo not drawn),2.81,31.3%
COc1cc(/C=C2/SC(=S)N(CC(=O)O)C2=O)ccc1OC(=O)c1cccs1,3.2,90.5%
COc1ccc2nc(SCC(C)=O)c(C#N)cc2c1,1.57,–
CCN1CCN(Cc2c(O)ccc3c2O/C(=C\C=C\c2ccccc2)C3=O)CC1,2.03,–
O=C(Nc1ccncc1)c1ccccc1[N+](=O)[O-],1.5,–
CC(C)C(=O)NC(c1ccco1)c1ccc2cccnc2c1O (stereo not drawn),1.72,–
O=C1CC(/C=C/c2ccccn2)=Nc2ccccc2N1,1.33,44.8%
Cc1ccc(-c2n[nH]c(=S)n2/N=C/C=C/c2ccccc2[N+](=O)[O-])cc1,1.37,–
C=CCNC(=O)/C(C#N)=C\c1cc(Cl)c(O)c(OCC)c1,1.5,96.7%
O=C(Nc1ccccc1C(=O)Nc1ccccc1C(=O)NCc1ccco1)c1ccco1,1.33,78.9%
Cc1ccc(Cn2cc(/C=N/Nc3ccc([N+](=O)[O-])cn3)c3ccccc32)cc1,1.43,–
CC(NC(=O)c1ccccc1Br)c1ccc2c(c1)CCCC2 (stereo not drawn),1.41,98%

SMILES,fold increase,viability
O=C(Nc1nc2c(cc3c4c(cccc42)CC3)s1)c1ccccc1Cl,2.28,92.6%
Cc1c(C(=O)N2c3ccccc3Sc3ccccc32)cccc1[N+](=O)[O-],1.32,–
O=C(c1ccccc1)C(Cn1cncn1)C(Sc1ccccc1)c1ccccc1 (stereo not drawn),1.14,–
Cc1ccccc1CNS(=O)(=O)c1ccc2c(c1)OCCO2,1.37,90.8%
CC(C)(C)C1=NN(c2ccc([N+](=O)[O-])cc2)C(c2ccccc2)C1 (stereo not drawn),1.32,–
CC1=NN(c2nc(-c3ccc(Cl)cc3)cs2)C(=O)C1,1.37,100%
COc1ccccc1N1C(=O)C2ON(c3ccccc3)C(c3ccc(N(C)C)cc3)C2C1=O (stereo not drawn),1.4,105%
CN(CCC#N)c1ccc(/C=C(\C#N)c2ccccn2)cc1,4.39,83.4%
O=C(NNC1=C(C(=O)C(F)(F)F)CCC1)c1cccc(Cl)c1,2.03,–
Cc1cc2nc3c(=O)n(CCc4ccccc4)c(=O)[nH]c3nc2cc1N,9.63,89.2%
CC(=O)Oc1c(C)cc(O)c2ccccc12,3.26,69.3%
O=C1c2ccccc2C(=O)C12OC(c1ccccc1)C1(C(=O)c3ccccc3C1=O)C2c1cccc([N+](=O)[O-])c1 (stereo not drawn),1.35,92.9%
O=C(O)c1cc(Cl)ccc1-c1ccc(/C=C/c2cc(C(F)(F)F)[nH]c(=O)n2)o1,1.35,94.8%
Nc1nnnn1CC(=O)OCc1cccc(Br)c1,1.33,93.9%
CC1CCCN(c2c([N+](=O)[O-])c(=O)oc3ccccc23)C1 (stereo not drawn),1.32,–
CCOc1ccc(C2C=C(c3ccc(F)cc3)Nc3ncnn32)cc1 (stereo not drawn),1.19,93.7%
CS(=O)(=O)N1CC2CCCN2c2cc(C(F)(F)F)ccc21 (stereo not drawn),1.42,88%
Cc1ccc(S(=O)(=O)NCC(=O)NCC(=O)OCc2c(F)cccc2Cl)cc1,1.43,91%
Cc1cc2nc3c(=O)n(Cc4ccccc4)c(=O)[nH]c3nc2cc1N,8.18,101%
CCOC(=O)c1cc2c(nc1NC(=S)Nc1ccccc1)CC(C)(CC)OC2 (stereo not drawn),1.36,93.2%
CC(=Nc1ccc(O)cc1)c1sc2ccccc2c1O,1.81,86.4%
CCOC(=O)C1=C(O)/C(=C/c2cc(OC)c(O)c(OC)c2)SC1=Nc1ccc(OC)cc1,1.4,105%
CCN1C(=O)/C(=C/c2ccc(N3CCCC3)cc2)NC1=S,3.77,–
COc1cc([N+](=O)[O-])ccc1NC(=O)CCCOc1cccc(C)c1C,1.5,92.8%
Cc1nc2ccccc2c2oc(C(=O)N3CCc4ccccc4C3)cc12,1.37,77.2%

SMILES,fold increase,viability
CN(C)c1ccc2c3c(cccc13)C(=O)N(c1ccccc1)C2=O,3.42,92.6%
Oc1cccc(Nc2nc(O)c(/C=C3\C=Nc4ccccc43)s2)c1,1.66,79.3%
O=C1CCCC2=C1C(c1ccccc1)NC(=S)N2 (stereo not drawn),1.33,96%
COc1ccc(C(CC(=O)O)NC(=O)COc2ccccc2)cc1OC (stereo not drawn),1.32,100%
CC(=O)/C(C#N)=C1\NC(=O)C(Cc2ccc(C)c(C)c2)S1 (stereo not drawn),1.77,82.4%
Cc1cccc(NN=C2c3ccccc3-c3ccccc32)c1,1.36,93.3%
CN1CCS/C1=C\C=C1/SC(=S)N(CC(=O)O)C1=O,2.44,88.1%
CCN(CC)c1ccc2c(c1)OC(N)=C(C#N)C2c1cccnc1 (stereo not drawn),2.58,40.4%
CC(C)(C(=O)c1ccccc1)/[N+]([O-])=C/c1ccccc1F,1.35,93%
CC(NC(=O)COc1ccc([N+](=O)[O-])cc1)c1ccccc1 (stereo not drawn),1.38,94.2%
COc1ccc(CCNc2nc(-c3sc(N)nc3C)cs2)cc1OC,1.24,–
O=C(NCc1ccco1)c1nc2c(nnn2Cc2cccc(Cl)c2)c(=O)[nH]1,1.37,112%
CCc1cccc(CC)c1-n1c(-c2cccnc2)n[nH]c1=S,1.32,–
CC(=O)c1c(C)n(CCO)c2ccc(O)cc12,1.35,89.2%
N#Cc1c(NC(=O)c2ccncc2)sc2c1CCC2,1.33,92.5%
O=c1c(O)c(-c2cccs2)oc2ccc(Cl)cc12,7.26,–
CSc1nsc(/C=C/Nc2ccc(Cl)cc2)c1C#N,1.88,89.4%
O=C(/C=C/Nc1ccc(F)cc1F)c1cccs1,1.34,94%
Cc1cc(C)n2nc(C(=O)NC(c3ccccc3)c3ccccc3)nc2n1,1.36,92.5%
COc1ccc(C2CC(c3ccccc3)=NN2C(=O)COC(=O)c2cccnc2)cc1 (stereo not drawn),1.38,103%
CC(=O)c1cc(NC(=O)c2cccc(C(F)(F)F)c2)c(=O)oc1/C=C/N(C)C,1.51,93.4%
O=c1c(O)cccc2cc(O)c(O)c(O)c12,1.66,97.4%
CN1C(=O)C(N=Nc2ccccc2C(=O)O)N(C)C1=S (stereo not drawn),1.65,–
O=c1ccc2ccc(Oc3ccc(Cl)cc3[N+](=O)[O-])cc2o1,1.79,96.3%
CC(=O)Nc1ccc(S(=O)(=O)Oc2ccccc2N2CCCCC2)cc1,1.83,86%

SMILES,fold increase,viability
CCCCN1C(=O)/C(=C/C=C2\SCCN2C)SC1=S,3.9,89.9%
COCC[N+]1(C)CCCCC1,1.36,101%
COc1cccc(C(=O)N2CCN(CCCc3ccccc3)CC2)c1OC,1.42,94.4%
COc1ccccc1C1C=C(c2ccc(Cl)cc2)Nc2nc(NS(C)(=O)=O)nn21 (stereo not drawn),2.8,94.6%
COc1c(O)cccc1-c1nnn(CCC(=O)OCC(=O)c2ccccc2)n1,1.58,99.9%
O=C1CCC(=O)N1c1cccc(-c2nc3ccccc3o2)c1,1.43,95.3%
CCCCc1ccc(-c2csc(/C(C#N)=C/c3ccco3)n2)cc1,1.38,97%
CCOc1cc(/C=C2\SC(=S)N(NC(=O)c3cccnc3)C2=O)ccc1O,3.78,97.5%
O=C1/C(=C/C=C/c2ccccc2)Oc2c1ccc(O)c2CN1CCN(CCO)CC1,2.24,93.1%
COc1ccc(NC(=O)c2sc3nc(-c4cccnc4)ccc3c2N)cc1OC,1.75,88.4%
N#CC(=C=[N-])c1nc2ccccc2nc1-[n+]1ccccc1,1.32,–
NC(=O)C1CCN(c2c([N+](=O)[O-])cc(C(F)(F)F)cc2[N+](=O)[O-])CC1,1.34,94.9%
O=C(N/N=C/c1ccco1)Nc1ccccc1,1.41,96.5%
COc1ccc(C)cc1NS(=O)(=O)c1cc(C)ccc1C,1.7,89.7%
S=C(Nc1ccccc1Oc1ccccc1)Nc1cccc(Cl)c1Cl,1.37,96.8%
Cc1ccc(-c2nnn(CC(=O)N(c3cccc(F)c3)C(C(=O)NC3CCCC3)c3ccco3)n2)o1 (stereo not drawn),1.42,105%
Cc1cc(C)c[n+](-c2[nH]c(=O)sc2/C=N/NC([S-])=Nc2ccccc2)c1,2.66,90.3%
O=C(CSCc1ccccc1)NNC(=S)Nc1cccc(Cl)c1Cl,1.19,–
Cc1nnc(SCc2cnc(-c3ccc(C(C)C)cc3)s2)n1C,1.33,85.5%
O=C(N/N=C/c1c(O)n(-c2ccccc2Cl)c(=O)c2ccccc12)c1cccnc1,1.8,70.8%
Cc1cc2c(c(=O)o1)C(CC(C)C)C(C#N)=C(N)O2 (stereo not drawn),1.35,102%
CCCN1C(=O)/C(=C/c2c(NCCCOC(C)C)nc3c(C)cccn3c2=O)SC1=S,2.56,89.7%
